# Measurements reported in PubChem BioAssay AID686970 (National Center for Advancing Translational Sciences (NCATS), 2013).
# Screen size: about 360,000 compounds; about 6,000 (1.7%) were called active. Inconclusive results, whose numbers are uncertain, are shown with a selection of clear calls. Calls follow the shape of the dose curve; as a rule, active = well fitted cell-killing curve with a large enough effect; inconclusive = small, poorly fitted or top-dose-only effect, or effect the other way; inactive = flat fitted curve, though single readings scatter. No potency is given beside an inconclusive call; the fits are too rough.
# Assay: qHTS for induction of synthetic lethality in tumor cells producing 2HG: qHTS for the HT-1080-NT fibrosarcoma cell line;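 also: NT is the 2HG producing partner of a matched IDH1 knockdown line; nearly all actives have a fitted effect of over 55% in size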;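 as to activity, negative = less viability: 0% = DMSO-treated cells and -100% = media-only wells without cells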
# Conditions: HT-1080-NT fibrosarcoma viability, CellTiter-Glo ATP luminescence, 48 h; activity, negative = less viability: at 46.1 µM (top of the series) unless noted
# Summary of the method: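 HT-1080-NT fibrosarcoma cells (2HG-overproducing), 750 cells/well in RPMI with 5% FBS, dosed after 2 h and incubated 48 h at 37C. CellTiter-Glo luminescence normalized to DMSO and no-cell wells; concentration-response curves fitted and classed.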
# Potency is read from the fitted curve at half-maximal effect; tags tell the direction and shape of the fitted curve.
Compound,Potency,"activity, negative = less viability"
CCC(=O)Nc1nc2nc(-c3ccccc3)cc(=O)n2[nH]1,"inconclusive [rising, partial curve]",
Cc1cccc(C2CC(c3ccccc3)=NN2c2ccc(S(N)(=O)=O)cc2)c1 (stereo not given),"inconclusive [cytotoxic, single point]",
Cc1noc(C)c1NC(=O)Nc1ccc2c(c1)C(=O)N([C@H](C)CO)C[C@H](C)[C@@H](CN(C)C(=O)Nc1c(C)noc1C)O2,,inactive: 18.1%
COc1ccc(Nc2cc(C(=O)NC3CCCC3)c3ccccc3n2)c(OC)c1,,inactive: -2.08%
Cc1c(N=Cc2c(O)n(Cc3ccco3)c(=O)c3ccccc23)c(=O)n(-c2ccccc2)n1C,,inactive: -22.9%
OCC1(Cc2ccccc2)CCCN(Cc2ccc(-c3ccco3)cc2)C1 (stereo not given),"inconclusive [cytotoxic, single point]",
Cc1cccc(C2c3[nH]c4ccccc4c3CCN2Cc2cccn2-c2ncccn2)c1 (stereo not given),,inconclusive: -32.3% [cytotoxic]
COCCN=c1scc(-c2ccc3c(c2)NC(=O)CO3)n1/N=C(\C)c1ccc(O)cc1,"inconclusive [cytotoxic, single point]",
O=C(Nc1ccc(N2CCN(C(=O)c3ccco3)CC2)c(Cl)c1)c1cc2ccccc2o1,"inconclusive [cytotoxic, single point]",
COc1ccc(CN2C[C@@H](CO)O[C@@H](n3cnc4c(NC5CCC5)ncnc43)C2)cc1,,inactive: 4.16%
CC(=O)O[C@]1(C(C)=O)CC[C@H]2[C@@H]3C=CC4=CC(=O)C=C[C@]4(C)[C@H]3CC[C@@]21C,,inactive: -3.45%
CCOC(=O)c1cnc(-n2nc(C)cc2C)nc1NNc1nc(-c2ccccc2)cc(-c2ccccc2)n1,"inconclusive [cytotoxic, partial curve]",
O=[N+]([O-])c1ccc(S(=O)(=O)c2cccc(C(F)(F)F)c2)nc1,active: 10.3 µM,
CCN(CC)C(=O)C1CCN(S(=O)(=O)c2ccc3c(c2)CCCN3C(=O)C2CCC2)CC1,,inactive: 4.4%
COC(=O)c1ccc(NC(=O)c2ccccc2OCC(=O)Nc2ccc(Br)cc2)cc1,"inconclusive [cytotoxic, single point]",
CCOP(=O)(OCC)c1nc(/C=C/c2ccccc2)oc1NCc1ccc(OC)cc1,"inconclusive [cytotoxic, single point]",
CCCCC[C@@H](C)N1C[C@@H](COCc2ccccc2)Oc2cc(N3CCC[C@@H]3CO)ccc2S1(=O)=O,"inconclusive [cytotoxic, single point]",
CSc1cccc(N=C2C(=O)Nc3ccccc32)c1,"inconclusive [cytotoxic, partial curve]",
CCOC(=O)C1=C(C(=O)OCC)N(CC2CCCCC2)CCC1=O,,inactive: -0.113%
Cc1ccccc1S(=O)(=O)N1C(c2ccc(Cl)c(Cl)c2)CC=C(C(=O)O)C1c1cccc(Br)c1 (stereo not given),"inconclusive [cytotoxic, single point]",
O=C(NCC1CCCN1S(=O)(=O)c1cccs1)C(=O)Nc1ccc(F)cc1F (stereo not given),,inactive: -3.14%
COc1cccc(N2CCN(c3nc(C)c(C)c(=O)[nH]3)CC2)c1,,inactive: -10.6%
CCOC(=O)NNc1ccc2nonc2c1[N+](=O)[O-],"inconclusive [cytotoxic, partial curve]",
CC1CCN(C2=C(NS(=O)(=O)c3ccc(Br)cc3)C(=O)c3ccccc3C2=O)CC1,active: 18.4 µM,

Compound,Potency,"activity, negative = less viability"
CCc1cc2c(SCC(=O)NC3CCCC3)ncnc2s1,,inactive: -3.46%
C=CC(C)(C)c1[nH]cnc1/C=C1\NC(=O)C(C(C)C)NC1=O (stereo not given),"inconclusive [cytotoxic, single point]",
C=CCc1cccc(/C=N/NC(=O)CCC(=O)Nc2ccc(F)cc2)c1O,"inconclusive [cytotoxic, partial curve]",
Cc1nc2ccccn2c1C(=O)NCc1ccc2c(c1)OCO2,,inactive: -22.8%
O=C(Nc1nnc(C2CC2)s1)C1Cc2ccccc2CN1S(=O)(=O)c1ccccc1F (stereo not given),"inconclusive [cytotoxic, single point]",
CN(CCOc1ccc(Br)cc1)CC(O)COc1ccc(C#N)cc1 (stereo not given),active: 20.6 µM,
CCCOC(=O)c1ccc(Oc2c(-c3ccc(O)cc3O)n[nH]c2C)cc1,"inconclusive [cytotoxic, single point]",
O=C1OC(c2ccc(Br)cc2)=N/C1=C\N1CCCCC1,,inactive: 12.1%
CC(=O)Nc1cccc(Oc2nc(NC(C)C)nc3cc(-c4ccccc4)sc23)c1,"inconclusive [cytotoxic, single point]",
C=CCOc1ccc(Br)cc1/C=C1/SC(=Nc2ccc(C(=O)O)cc2)NC1=O,,inactive: 7.61%
COc1ccc(-c2noc(C3CCCN(S(=O)(=O)c4cccc(Cl)c4)C3)n2)cc1OC (stereo not given),,inactive: 6.2%
CCn1c(C)nc2cc(C(=O)N/N=C/c3cccc(OC)c3O)ccc21,,inactive: -28.1%
COc1ccc(C2c3[nH]c4ccccc4c3CCN2CCCn2cccn2)c(C)c1C (stereo not given),"inconclusive [cytotoxic, partial curve]",
Oc1ccc(Br)cc1-c1cc(-c2ccc(Cl)cc2)n[nH]1,active: 23.1 µM,
Oc1c(C=C2N=c3ccccc3=N2)sc(=S)n1-c1ccc(F)cc1,"inconclusive [cytotoxic, single point]",
O=C(Nc1ccc(Oc2ccc(NC(=O)Nc3ccc([N+](=O)[O-])cc3)cc2)cc1)Nc1ccc([N+](=O)[O-])cc1,"inconclusive [cytotoxic, single point]",
Cc1nc(-c2ccccc2)sc1C(=O)Nc1ccc(S(N)(=O)=O)cc1,"inconclusive [rising, single point]",
Cc1nn(-c2ccccc2)c(N)c1N=Nc1ccccc1,"inconclusive [cytotoxic, single point]",
O=C(Nc1ccc2oc(=O)ccc2c1)c1ccc(-c2ccccc2[N+](=O)[O-])o1,active: 18.4 µM,
CC1Cc2ccccc2N1C(=O)c1ccc2snnc2c1 (stereo not given),,inactive: 0%
COC(=O)c1ccc(OCC(O)CNCC(c2ccc(OC)cc2)N(C)C)c(OC)c1 (stereo not given),,inactive: -3.7%
O=C1/C(=C/c2ccncc2)CCC/C1=C\c1ccncc1,active: 4.61 µM,
Cc1cccc(Oc2nccc(C(F)(F)F)c2C(=O)Nc2ccc(F)cc2F)c1,"inconclusive [cytotoxic, partial curve]",
COc1cc(CNc2nc3c(C)cc(C)cc3s2)ccc1O,"inconclusive [cytotoxic, single point]",

Compound,Potency,"activity, negative = less viability"
CN(C(=O)CSc1nncn1-c1ccccc1)c1ccccc1,"inconclusive [cytotoxic, single point]",
CCCCCCCN1CCN=C1N(C)C,,inactive: 1.94%
COc1ccc2nc(NC(=O)Nc3ccccc3)sc2c1,"inconclusive [cytotoxic, single point]",
CCn1cc(Cl)c(C(=O)N2N=C(c3ccc4ccccc4c3)CC2c2ccccc2O)n1 (stereo not given),"inconclusive [cytotoxic, single point]",
O=S(=O)(c1ccc(Cl)cc1)N1CCN(c2ncnc3sccc23)CC1,"inconclusive [cytotoxic, partial curve]",
CCc1cc(C(=O)c2ccc(OC)cc2)c(NC(=O)CN2CCCCC2)s1,"inconclusive [rising, single point]",
CC(NCc1nc2ccccc2n1C)C12CC3CC(CC(C3)C1)C2 (stereo not given),"inconclusive [cytotoxic, single point]",
O=C1c2cc([N+](=O)[O-])ccc2-c2cc(Cl)c(NC(=O)C(F)(F)F)cc21,,inactive: 0.0629%
CCN(CC)S(=O)(=O)c1ccc(S(=O)(=O)N(CC(=O)Nc2ccccc2)Cc2ccco2)cc1,,inactive: 4.25%
Cc1cc(C)nc(/N=C(\N)Nc2cccc(OCc3ccccc3)c2)n1,"inconclusive [cytotoxic, single point]",
COc1cc(F)ccc1-c1csc(C(O)c2ccc(F)c(F)c2)n1 (stereo not given),"inconclusive [cytotoxic, single point]",
CNC(=S)N/N=C(\C)c1ccc2c(c1)OCCO2,,inactive: 29.6%
Cc1cccc(-n2cc(CN(C)Cc3nccn3C)c(-c3cccc(F)c3)n2)c1,"inconclusive [cytotoxic, single point]",
CCOc1ccc2nc(NC(=O)C3CCCN(S(=O)(=O)c4c(C)noc4C)C3)sc2c1 (stereo not given),"inconclusive [cytotoxic, partial curve]",
N#C/C(=C/c1ccc(Sc2nc3ccccc3[nH]2)o1)c1cccc(Br)c1,"inconclusive [cytotoxic, single point]",
Cc1ccoc1C(=O)Nc1ccc2ccccc2c1,"inconclusive [cytotoxic, partial curve]",
CC(C)N(C)C1CCN(S(=O)(=O)c2ccc(-c3ccc(=O)[nH]n3)s2)CC1,,inactive: -0.982%
C[C@]12CCC3C(CC[C@H]4CCCC[C@]34C)C1CC[C@@]2(O)CNCCO (stereo not given in full),"inconclusive [cytotoxic, single point]",
O=C(NCc1cccs1)c1noc2c1CCCC2,"inconclusive [cytotoxic, single point]",
CCC(=O)N1CCN(c2ccc(NC(=O)c3cc4ccccc4o3)cc2Cl)CC1,"inconclusive [cytotoxic, single point]",
CCCCNc1c(-c2ccc(SC(C)CC)cc2)nc2ccc(Cl)cn12 (stereo not given),,inactive: -6.24%
CC1=C(C(=O)OC2CCCC2)C(c2coc3ccccc3c2=O)C2=C(CC(C)(C)CC2=O)N1 (stereo not given),"inconclusive [cytotoxic, single point]",
